# Source: PubChem BioAssay AID485344 (National Center for Advancing Translational Sciences (NCATS), 2010)
# In all, about 340,000 compounds went through this assay and about 6,900 (2%) were called active. Cut-off read from the data, not from the text of the source: active = inhibition above about 30%; inactive = below that, where a call was filed. This is a selection; strong and weak results do not stand in their true shares. The source gives no active or inactive call for entries shown without one. A structure can be active in one record and inactive in another.
# Molecular target: D(2) dopamine receptor (Homo sapiens) (UniProt P14416)
# Assay: HTS Assay for Allosteric Antagonists of the Human D2 Dopamine Receptor: Primary Screen for Antagonists; note: 0% is about no effect
# Conditions: HEK293 TREx D2 cells, calcium flux, dopamine EC80; at 10 µM; stronger effect = higher value
# Description: NIH Chemical Genomics Center [NCGC] NIH Molecular Libraries Probe Centers Network [MLPCN] MLPCN Grant: NS064831-01 Assay Submitter (PI): David Sibley Dopamine receptors (DARs) are involved in the etiology and/or therapy of a number of neuropsychiatric and endocrine disorders. For instance, all receptor-based antiparkinsonian drugs work via stimulating the D2 DAR subtype whereas all FDA-approved antipsychotic agents are antagonists of this receptor. […] There are three different types of allosteric modulators that we are seeking, two of which will stimulate or augment receptor signaling, allosteric agonists and potentiators, while the third, allosteric antagonists, will attenuate receptor signaling. The present primary screening assay measures compound antagonism after an EC80 addition of dopamine by tracking calcium flux in a […], inducible Hek293 Trex D2 cell line.
# Freshly passaged cells are plated in 1536 well black, clear bottom plates at a density of 4000 cells/well in 3 ul of complete media containing 1x tetracycline inducer. After an overnight incubation at 30 C in 5% CO2, cells are loaded with 2 ul of the no wash Calcium Assay Kit (ABD Bioquest) and incubated at room temperature for 30 to 90 minutes. Agonist read: A 10 cycle (1 second/cycle) baseline measurement is taken and then the FDSS online 1536 pintool delivers 23 nl of compound library (as well as dopamine controls) to the plate. The plate is measured for kinetically at 1 cycle/sec for 180 seconds. Following the 180 second read, 1 ul of an EC80 (negative modulation assay) is delivered by an onboard pipette head. Measurements are taken kinetically for an additional 180 seconds.
# Sequence of UniProt P14416 (P14416 whole entry, looked up): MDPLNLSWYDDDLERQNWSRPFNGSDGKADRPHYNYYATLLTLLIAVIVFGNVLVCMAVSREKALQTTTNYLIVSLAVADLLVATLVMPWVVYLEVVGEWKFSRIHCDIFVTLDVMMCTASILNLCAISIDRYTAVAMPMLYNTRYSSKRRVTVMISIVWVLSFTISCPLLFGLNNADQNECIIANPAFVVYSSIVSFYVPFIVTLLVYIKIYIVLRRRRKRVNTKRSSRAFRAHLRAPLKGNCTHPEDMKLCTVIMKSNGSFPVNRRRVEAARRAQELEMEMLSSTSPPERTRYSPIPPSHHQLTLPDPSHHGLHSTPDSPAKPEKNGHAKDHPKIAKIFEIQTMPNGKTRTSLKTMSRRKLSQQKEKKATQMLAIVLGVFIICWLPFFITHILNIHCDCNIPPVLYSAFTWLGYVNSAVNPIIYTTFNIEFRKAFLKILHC
row,Compound,inhibition
1,CCOC(=O)CNC(c1ccccc1)c1cc(Br)ccc1NC(=O)c1cccc(Cl)c1 (stereo not given),-9.46%
2,Cc1ccc(Cl)cc1N1CCN(C(=O)c2cc(S(=O)(=O)N3CCCC3)c[nH]2)CC1,11.1%
3,CC(=O)N1CCCc2cc(S(=O)(=O)N3CCC(C(=O)NCc4ccccc4)CC3)ccc21,16.2%
4,CCN1C(=O)c2ccccc2S(=O)c2ccc(C(=O)N3CCCCCC3)cc21 (stereo not given),active: 32.3%
5,CCc1nnc(SCC(=O)N(CC)c2ccccc2)c2cc3oc(C)cc3n12,8.68%
6,CCN(Cc1ccccc1)C(=O)Cn1c(=O)n(-c2ccc(Cl)cc2)c(=O)c2c(C)c(C)sc21,-4.42%
7,Cc1ccc(CN2CCSc3ccc(C(=O)Nc4ccc(C)cc4)cc32)cc1,-11.8%
8,CCCCNC(=O)c1ccccc1NC(=O)CN(c1ccccc1)S(=O)(=O)N(C)C,3.17%
9,O=C(Nc1ccc(NC(=O)c2ccc([N+](=O)[O-])o2)cc1Cl)c1ccco1,active: 39.8%
10,Cc1ccc2c(=O)cc(C(=O)Nc3ccc(S(=O)(=O)N4CCCCCC4)cc3)oc2c1,8.88%
11,O=C(CSc1nc(=O)n(Cc2ccco2)c2c1CCC2)Nc1ccccc1C(F)(F)F,23.6%
12,CC(C)c1ccc(NC(=O)CSC2=Nc3ccccc3C3=NC(CCC(=O)NCc4ccco4)C(=O)N23)cc1 (stereo not given),14.8%
13,Cc1ccc(NC2=C(Cl)C(=O)OC2NC(=O)c2ccccc2)cc1 (stereo not given),active: 54.9%
14,Cc1ccc(S(=O)(=O)N(C)C)cc1NC(=O)Nc1ccccc1,active: 84.4%
15,Cc1cccc(S(=O)(=O)c2cn(C)c3cc(N4CCN(c5ccc(F)cc5)CC4)c(F)cc3c2=O)c1,-1.57%
16,COc1ccc(OC)c(CCNC(=O)CCn2c(=O)c3cccn3c3ccc(F)cc32)c1,2.75%
17,CCOc1cc(C)nc(N2CCN(C3CCCCC3)CC2)n1,active: 40.1%
18,COc1ccc(C)cc1NC(=O)COCc1cc(-c2ccc(F)cc2)on1,5.87%
19,CC(C)(C)C(=O)OCc1cc(=O)n2nc(C3CC3)sc2n1,7.91%
20,Cc1ccc(N2CCN(S(=O)(=O)c3c(C)[nH]c(=O)[nH]c3=O)CC2C)cc1 (stereo not given),13.1%

row,Compound,inhibition
1,CCCN(CCC)c1nn2c(=O)c(C(=O)NCc3cc(Br)ccc3OC)cnc2s1,-7.28%
2,CCOC(=O)c1cc(-c2ccccc2)n(CC(=O)Nc2ccc(CC)cc2)c1C,1.75%
3,O=C(CSc1nc2c(oc3ccccc32)c(=O)n1Cc1ccco1)Nc1ccccc1,-2.1%
4,Cc1ccc(CN2CCCN(Cc3c(C)cc(C)cc3C)S2(=O)=O)cc1,-7.35%
5,CCCSC1=NC2(CCN(C(=O)NC3CCCCC3)CC2)N=C1c1ccc(Cl)cc1,7.64%
6,O=C(COc1ccccc1F)Nc1c(C(=O)Nc2cccc(F)c2)oc2ccccc12,-22.1%
7,Cc1ccc(C(=O)Nc2nc3nc(-c4ccccc4)cc(=O)n3[nH]2)cc1,-14.1%
8,O=C(NCCCN1CCN(c2ccccc2F)CC1)Nc1ccccc1[N+](=O)[O-],active: 99%
9,O=C(Nc1cc(-c2ccccc2F)nn1-c1ccccc1)c1ccccc1Br,7.67%
10,CCCCCOC(=O)CSc1nc2sc3c(c2c(=O)n1-c1ccccc1)CC(C)(CC)OC3 (stereo not given),-1.52%
11,COc1ccc(Cn2ccn(Cc3cccc(Cl)c3)c(=O)c2=O)cc1,2.17%
12,Cc1ccc(S(=O)(=O)Cc2nc(-c3ccc(C(=O)NCc4ccccc4C)cc3)oc2C)cc1,9.54%
13,CCOc1cc(C(=O)Nc2ccc3c(c2)OCO3)ccc1OCCOc1ccccc1Cl,active: 31.8%
14,CCOc1ccc(-c2nonc2NC(=O)c2oc3ccc(C)cc3c2C)cc1OCC,-26%
15,O=C(CCCCl)N1CCc2[nH]c3ccccc3c2C1,active: 31.8%
16,Cc1ccc(CN2CCC(c3cc(-c4cccs4)n[nH]3)CC2)cc1,active: 69.9%
17,CCCN1CCC2(CC1)C(C#N)=C(N)Oc1c2sc2nc(C)cc(C)c12,active: 95.9%
18,CCCn1cc(S(=O)(=O)c2ccc(OC)cc2)c(=O)c2cc(F)c(N3CCCC(C)C3)cc21 (stereo not given),5.16%
19,CC(=O)c1ccc(NC(=O)C2=CC(c3ccc(C)cc3)=NS(=O)(=O)N2C)cc1,-2%
20,COc1ccc(-c2cc(C)no2)cc1S(=O)(=O)NCc1ccco1,28.3%

row,Compound,inhibition
1,CCN(CC)S(=O)(=O)c1ccc2c(c1)c(=O)c(C(=O)NCc1ccccc1Cl)cn2C,18.6%
2,COc1ccc(S(=O)(=O)N2CCN(C3CCCCCCC3)CC2)cc1,active: 34.3%
3,CCOC(=O)c1c(-c2ccc(C)cc2)csc1NC(=O)c1cc(=O)c2cc(C)cc(C)c2o1,17.1%
4,COc1ccc(-n2c(SCc3ccccc3F)nc3c([nH]c4ccccc43)c2=O)cc1OC,4.48%
5,O=C(CSc1c2c(nc3cc(Cl)ccc13)CCCC2)N1CCN(c2ccccc2)CC1,-14.6%
6,CC1CCN(C(=O)Cn2cc(SCC(=O)Nc3ccccc3)c3ccccc32)CC1,-0.633%
7,COc1cccc(-c2nc(SCC(=O)NCc3ccco3)c3c(=O)n(C)c(=O)n(C)c3n2)c1,4.53%
8,CCOC(=O)c1noc2ncnc(N3CCN(c4cccc(C(F)(F)F)c4)CC3)c12,7.76%
9,COc1ccc(Cn2c(=O)n(-c3ccc(OC)cc3)c(=O)c3c2c2cc(OC)ccc2n3C)cc1,4.23%
10,O=C(NCc1ccc(Cl)cc1)C1CCN(c2ncnc3c2nc2n3CCCCC2)CC1,-14.2%
11,CCOc1ccccc1C(=O)NCC(c1cccs1)S(=O)(=O)c1ccc(F)c(C)c1 (stereo not given),-11.5%
12,CCc1ccc(NC(=O)CSc2nc3c(c(=O)[nH]2)CN(Cc2ccc(C)cc2)CC3)cc1,4.52%
13,COCc1cc(C)nc2c1C(=O)NC(c1ccc(Br)cc1)N2Cc1ccccc1 (stereo not given),3.35%
14,COc1cc(Cl)c(C)cc1NC(=O)Cn1c2ncccc2c(=O)n1-c1ccccc1,5.59%
15,CCc1ccc(-n2nnc(-c3nc(-c4ccc(C)cc4)no3)c2N)cc1,9.13%
16,CC(C)CN1CCC(=O)N([C@H](CSc2ccc(Br)cc2)Cc2ccccc2)CC1,active: 35.6%
17,COc1ccc(Cl)cc1C(=O)NCc1nnnn1-c1ccccc1,-12%
18,CCc1ccc(NC(=O)C(=O)NCC(c2cccnc2)N2CCc3ccccc3C2)cc1 (stereo not given),-18.8%
19,Cc1cccc(C)c1NC(=S)N/N=C/c1ccc(C(=O)O)cc1,active: 36.2%
20,COc1nnc(-c2ccc(N3CCCCC3)c(NC(=O)c3ccccc3Cl)c2)c2ccccc12,3.13%
